{
  "source": "paper PMC9911399",
  "about": "“Two distinct binding modes provide the RNA-binding protein RbFox with extraordinary sequence specificity”",
  "binders": {"B1": {"name": "GUAGGCU (DNA:RNA)", "RNA": "GGGAGACCGGAAUUCAGAUUGUCCGUAGGCUUUAAAUCCCGUCGUAGCCACCA", "DNA 1": "CAATCTGAATTCCGGTCTCCC", "DNA 2": "TGGTGGCTACGACGGGATT"}, "B2": {"name": "UCUACGG (DNA:RNA)", "RNA": "GGGAGACCGGAAUUCAGAUUGUCCUCUACGGUUAAAUCCCGUCGUAGCCACCA", "DNA 1": "CAATCTGAATTCCGGTCTCCC", "DNA 2": "TGGTGGCTACGACGGGATT"}, "B3": {"name": "AACGACG (DNA:RNA)", "RNA": "B1 RNA with G25A, U26A, A27C, G29A, U31G", "DNA 1": "CAATCTGAATTCCGGTCTCCC", "DNA 2": "TGGTGGCTACGACGGGATT"}, "B4": {"name": "AUGCGCU (DNA:RNA)", "RNA": "B1 RNA with G25A, A27G, G28C", "DNA 1": "CAATCTGAATTCCGGTCTCCC", "DNA 2": "TGGTGGCTACGACGGGATT"}, "B5": {"name": "UGACGGU (DNA:RNA)", "RNA": "B1 RNA with G25U, U26G, G28C, C30G", "DNA 1": "CAATCTGAATTCCGGTCTCCC", "DNA 2": "TGGTGGCTACGACGGGATT"}, "B6": {"name": "CGCCCAU (DNA:RNA)", "RNA": "B1 RNA with G25C, U26G, A27C, G28C, G29C, C30A", "DNA 1": "CAATCTGAATTCCGGTCTCCC", "DNA 2": "TGGTGGCTACGACGGGATT"}, "B7": {"name": "AGACCUG (DNA:RNA)", "RNA": "B2 RNA with U25A, C26G, U27A, A28C, G30U", "DNA 1": "CAATCTGAATTCCGGTCTCCC", "DNA 2": "TGGTGGCTACGACGGGATT"}, "B8": {"name": "CAGGCGU (DNA:RNA)", "RNA": "B1 RNA with G25C, U26A, A27G, G29C, C30G", "DNA 1": "CAATCTGAATTCCGGTCTCCC", "DNA 2": "TGGTGGCTACGACGGGATT"}, "B9": {"name": "UACCUCU (DNA:RNA)", "RNA": "B1 RNA with G25U, U26A, A27C, G28C, G29U", "DNA 1": "CAATCTGAATTCCGGTCTCCC", "DNA 2": "TGGTGGCTACGACGGGATT"}, "B10": {"name": "CACGUAU (DNA:RNA)", "RNA": "B1 RNA with G25C, U26A, A27C, G29U, C30A", "DNA 1": "CAATCTGAATTCCGGTCTCCC", "DNA 2": "TGGTGGCTACGACGGGATT"}, "B11": {"name": "AUAAAUA (DNA:RNA)", "RNA": "B1 RNA with G25A, G28A, G29A, C30U, U31A", "DNA 1": "CAATCTGAATTCCGGTCTCCC", "DNA 2": "TGGTGGCTACGACGGGATT"}, "B12": {"name": "AUCGUCC (DNA:RNA)", "RNA": "B1 RNA with G25A, A27C, G29U, U31C", "DNA 1": "CAATCTGAATTCCGGTCTCCC", "DNA 2": "TGGTGGCTACGACGGGATT"}, "B13": {"name": "UCCCUGG (DNA:RNA)", "RNA": "B2 RNA with U27C, A28C, C29U", "DNA 1": "CAATCTGAATTCCGGTCTCCC", "DNA 2": "TGGTGGCTACGACGGGATT"}, "B14": {"name": "GGAUUAC (DNA:RNA)", "RNA": "B1 RNA with U26G, G28U, G29U, C30A, U31C", "DNA 1": "CAATCTGAATTCCGGTCTCCC", "DNA 2": "TGGTGGCTACGACGGGATT"}, "B15": {"name": "AGCUUGC (DNA:RNA)", "RNA": "B2 RNA with U25A, C26G, U27C, A28U, C29U, G31C", "DNA 1": "CAATCTGAATTCCGGTCTCCC", "DNA 2": "TGGTGGCTACGACGGGATT"}, "B16": {"name": "UGUUGUG (DNA:RNA)", "RNA": "B2 RNA with C26G, A28U, C29G, G30U", "DNA 1": "CAATCTGAATTCCGGTCTCCC", "DNA 2": "TGGTGGCTACGACGGGATT"}, "B17": {"name": "GAAGAGA (DNA:RNA)", "RNA": "B1 RNA with U26A, G29A, C30G, U31A", "DNA 1": "CAATCTGAATTCCGGTCTCCC", "DNA 2": "TGGTGGCTACGACGGGATT"}, "B18": {"name": "GAGGCGU (DNA:RNA)", "RNA": "B1 RNA with U26A, A27G, G29C, C30G", "DNA 1": "CAATCTGAATTCCGGTCTCCC", "DNA 2": "TGGTGGCTACGACGGGATT"}, "B19": {"name": "GAGUCCG (DNA:RNA)", "RNA": "B1 RNA with U26A, A27G, G28U, G29C, U31G", "DNA 1": "CAATCTGAATTCCGGTCTCCC", "DNA 2": "TGGTGGCTACGACGGGATT"}, "B20": {"name": "ACACGAC (DNA:RNA)", "RNA": "B1 RNA with G25A, U26C, G28C, C30A, U31C", "DNA 1": "CAATCTGAATTCCGGTCTCCC", "DNA 2": "TGGTGGCTACGACGGGATT"}, "B21": {"name": "UAGAAAU (DNA:RNA)", "RNA": "B2 RNA with C26A, U27G, C29A, G30A, G31U", "DNA 1": "CAATCTGAATTCCGGTCTCCC", "DNA 2": "TGGTGGCTACGACGGGATT"}, "B22": {"name": "AGCACCA (DNA:RNA)", "RNA": "B2 RNA with U25A, C26G, U27C, G30C, G31A", "DNA 1": "CAATCTGAATTCCGGTCTCCC", "DNA 2": "TGGTGGCTACGACGGGATT"}, "B23": {"name": "GCCGGCA (DNA:RNA)", "RNA": "B1 RNA with U26C, A27C, U31A", "DNA 1": "CAATCTGAATTCCGGTCTCCC", "DNA 2": "TGGTGGCTACGACGGGATT"}, "B24": {"name": "CCGUAUG (DNA:RNA)", "RNA": "B2 RNA with U25C, U27G, A28U, C29A, G30U", "DNA 1": "CAATCTGAATTCCGGTCTCCC", "DNA 2": "TGGTGGCTACGACGGGATT"}, "B25": {"name": "CCCCAGG (DNA:RNA)", "RNA": "B2 RNA with U25C, U27C, A28C, C29A", "DNA 1": "CAATCTGAATTCCGGTCTCCC", "DNA 2": "TGGTGGCTACGACGGGATT"}, "B26": {"name": "UUAUCCA (DNA:RNA)", "RNA": "B1 RNA with G25U, G28U, G29C, U31A", "DNA 1": "CAATCTGAATTCCGGTCTCCC", "DNA 2": "TGGTGGCTACGACGGGATT"}, "B27": {"name": "AACACCC (DNA:RNA)", "RNA": "B2 RNA with U25A, C26A, U27C, G30C, G31C", "DNA 1": "CAATCTGAATTCCGGTCTCCC", "DNA 2": "TGGTGGCTACGACGGGATT"}, "B28": {"name": "AUGACAA (DNA:RNA)", "RNA": "B2 RNA with U25A, C26U, U27G, G30A, G31A", "DNA 1": "CAATCTGAATTCCGGTCTCCC", "DNA 2": "TGGTGGCTACGACGGGATT"}, "B29": {"name": "CGCACAC (DNA:RNA)", "RNA": "B2 RNA with U25C, C26G, U27C, G30A, G31C", "DNA 1": "CAATCTGAATTCCGGTCTCCC", "DNA 2": "TGGTGGCTACGACGGGATT"}, "B30": {"name": "GAAGGCU (DNA:RNA)", "RNA": "B1 RNA with U26A", "DNA 1": "CAATCTGAATTCCGGTCTCCC", "DNA 2": "TGGTGGCTACGACGGGATT"}, "B31": {"name": "CAAAGUC (DNA:RNA)", "RNA": "B1 RNA with G25C, U26A, G28A, C30U, U31C", "DNA 1": "CAATCTGAATTCCGGTCTCCC", "DNA 2": "TGGTGGCTACGACGGGATT"}},
  "note": "Numbering of substitutions follows the chain as printed; changes in the protein carry UniProt numbers. The list shows a part of the results.",
  "data": [
    {"biological_target": "T1, RBFOX1 RRM (Homo sapiens, UniProt Q9NWB1 109-208)", "T1 sequence": "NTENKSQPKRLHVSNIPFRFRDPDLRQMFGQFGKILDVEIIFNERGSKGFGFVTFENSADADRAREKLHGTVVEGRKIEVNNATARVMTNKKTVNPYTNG", "assay": "EMSA; HiTS-Eq, 1 nM pool, 10 min; buffer printed only for the single-RNA assays: 10 mM Tris pH 7.5, 150 mM NaCl, 3.4 mM EDTA, 0.001% NP-40, 30 C", "conditions": "tags: His6 N-terminal (pET28a); label: 5' 32P", "procedure,_shortened": "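Relative association constants, normalised to the cognate motif, were derived by comparing read counts of each RNA species with those of the control reaction. The RNA sequenced was the free fraction, separated by 8% native PAGE after a 10 min equilibration in 50 µL of 1 nM 5′-radiolabelled RNA (7 randomized nucleotides) with increasing concentrations of purified wild-type or mutant RbFox RRM.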", "values": [
      {"binder": "B1", "binding signal": "0.0108 KA relative to UGCAUGU"},
      {"binder": "B2", "binding signal": "0.00665 KA relative to UGCAUGU"},
      {"binder": "B3", "binding signal": "0.00377 KA relative to UGCAUGU"},
      {"binder": "B4", "binding signal": "0.0127 KA relative to UGCAUGU"},
      {"binder": "B5", "binding signal": "0.0205 KA relative to UGCAUGU"},
      {"binder": "B6", "binding signal": "0.00281 KA relative to UGCAUGU"},
      {"binder": "B7", "binding signal": "0.0122 KA relative to UGCAUGU"},
      {"binder": "B8", "binding signal": "0.0136 KA relative to UGCAUGU"},
      {"binder": "B9", "binding signal": "0.00134 KA relative to UGCAUGU"},
      {"binder": "B10", "binding signal": "0.00307 KA relative to UGCAUGU"},
      {"binder": "B11", "binding signal": "0.00163 KA relative to UGCAUGU"},
      {"binder": "B12", "binding signal": "0.0088 KA relative to UGCAUGU"},
      {"binder": "B13", "binding signal": "0.014 KA relative to UGCAUGU"},
      {"binder": "B14", "binding signal": "0.0169 KA relative to UGCAUGU"},
      {"binder": "B15", "binding signal": "0.0314 KA relative to UGCAUGU"},
      {"binder": "B16", "binding signal": "0.0291 KA relative to UGCAUGU"},
      {"binder": "B17", "binding signal": "0.00922 KA relative to UGCAUGU"},
      {"binder": "B18", "binding signal": "0.0192 KA relative to UGCAUGU"},
      {"binder": "B19", "binding signal": "0.0128 KA relative to UGCAUGU"},
      {"binder": "B20", "binding signal": "0.0059 KA relative to UGCAUGU"},
      {"binder": "B21", "binding signal": "0.00652 KA relative to UGCAUGU"},
      {"binder": "B22", "binding signal": "0.00327 KA relative to UGCAUGU"},
      {"binder": "B23", "binding signal": "0.024 KA relative to UGCAUGU"},
      {"binder": "B24", "binding signal": "0.0111 KA relative to UGCAUGU"},
      {"binder": "B25", "binding signal": "0.0182 KA relative to UGCAUGU"},
      {"binder": "B26", "binding signal": "0.000975 KA relative to UGCAUGU"},
      {"binder": "B27", "binding signal": "0.000265 KA relative to UGCAUGU"},
      {"binder": "B28", "binding signal": "0.00688 KA relative to UGCAUGU"},
      {"binder": "B29", "binding signal": "0.00709 KA relative to UGCAUGU"},
      {"binder": "B30", "binding signal": "0.0147 KA relative to UGCAUGU"},
      {"binder": "B31", "binding signal": "0.00345 KA relative to UGCAUGU"}
    ]}
  ]
}
